Consider 10 substances from the supplement of paper PMC8728848.

Common to all, as to test: glycan array binding signal (z-score within array); higher = stronger binding
Holding throughout (settings): glycan notation: IUPAC condensed, linker removed

The subject of experiment [1] is GlcNAc(b1-3)[GlcNAc(b1-6)]GalNAc. In outline: (§1)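 The binding signal is a Z-score computed within each array. Data were drawn from 3228 arrays in the Consortium for Functional Glycomics database, restricted to those with a known protein sequence. Scores were averaged over arrays of the same protein sequence at different concentrations or buffers, and over linkers, and negative values can be taken as non-binding.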

Experiment [2] relates to GlcNAc(b1-3)[GlcNAc(b1-6)]GlcNAc(b1-4)GlcNAc. Summed up: as §1
The subject of experiment [3] is GlcNAc(b1-3)[GlcNAc(b1-6)]GlcNAc. Summed up: as §1
For experiment [4], the system named is GlcNAc(b1-4)Gal(b1-4)GlcNAc. In outline:
as §1

Experiment [5] has as its system GlcNAc(b1-4)GlcNAc(b1-4)GlcNAc(b1-4)GlcNAc(b1-4)GlcNAc(b1-4)GlcNAc. In outline: as §1
Experiment [6] deals with GlcNAc(b1-4)GlcNAc(b1-4)GlcNAc(b1-4)GlcNAc(b1-4)GlcNAc. Summed up: as §1
In experiment [7] the test system is GlcNAc(b1-4)GlcNAc(b1-4)GlcNAc. In outline:
as §1

The subject of experiment [8] is GlcNAc(b1-6)Gal(b1-4)GlcNAc. Summed up:
as §1

Another experiment deals with GlcNAc(b1-6)GalNAc. Summed up:
as §1

This is one part of a sample in which the strongest signals are shown more often than they occur.

Turning to “Meso764 (Homo sapiens) (chain not printed)”, the “glycan array binding signal (z-score)” value in [1] was -0.549.
As for “CLEC-2 (Homo sapiens) (chain not printed)”, the “glycan array binding signal (z-score)” value in experiment [2] is -0.444.
“STIM-3 (Mus musculus) (chain not printed)”: the “glycan array binding signal (z-score)” value in experiment [3] was -0.861.
Regarding “Gal 8-short (Homo sapiens) (chain not printed)”, in experiment [4], the “glycan array binding signal (z-score)” value was -0.792.
With “M-Ficolin Y271F (Homo sapiens) (chain not printed)”, the “glycan array binding signal (z-score)” value in experiment [5] was -0.619.
For the substance “Serum Amyloid P component (Homo sapiens) (chain not printed)”, the “glycan array binding signal (z-score)” value in experiment [6] was -0.303; in experiment [7] it was 0.984.
Take “Collectin K1 (Homo sapiens) (chain not printed)”: the “glycan array binding signal (z-score)” value in experiment [7] is -0.218.
With “L-Ficolin (Homo sapiens) (chain not printed)”, the “glycan array binding signal (z-score)” value in experiment [8] turned out to be 3.31.
MBP (Homo sapiens) (chain not printed): the “glycan array binding signal (z-score)” value in the experiment with GlcNAc(b1-6)GalNAc is 0.119.
With “M-Ficolin G221F (Homo sapiens) (chain not printed)”, the “glycan array binding signal (z-score)” value with GlcNAc(b1-6)GalNAc is -0.17.
